From PubChem BioAssay AID504832 (National Center for Advancing Translational Sciences (NCATS), 2011)
Out of some 310,000 compounds screened, about 18,000 (5.8%) were called active. Inconclusive means that the source gave no clear call. Such entries were picked first, then a sample of the others. Calls come from the whole dose curve; as a rule, active = well fitted inhibition curve with a large enough effect; inconclusive = small, poorly fitted or top-dose-only effect, or another doubt; inactive = no such curve, though single readings can be large or run the other way. Potencies of inconclusive entries are left out as doubtful fits.
% is set by controls: 0 for no effect and ±100 for the full control effect; potency is the fitted concentration of half-maximal effect; tags give direction and shape of the fitted curve.

Experiment: Primary qHTS for delayed death inhibitors of the malarial parasite plastid, 48 hour incubation
Conditions: P. falciparum luciferase growth in erythrocytes; series mostly up to 28.7 µM; activity change, negative = inhibition: at the top concentration
Outline: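 Growth was read as firefly luciferase luminescence after a 48 h, 37 C, 5% CO2 exposure of compounds to reporter-bearing P. falciparum cultures (0.1% parasitemia, 2% hematocrit final) in Albumax-supplemented RPMI 1640.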
In the case of `OC(COc1ccc(OCC(O)CN2CCCCC2)cc1)CN1CCCCC1` (stereo unspecified), the Potency is reported as inconclusive [inhibitor, single point].
With `Cc1ccc(CN2CCN(Cc3ccc(-n4cccn4)cc3)CC2CCO)cc1` (stereo unspecified) the “activity change, negative = inhibition” value was inactive: -14.5%.
For `CCc1ccc(N2CC(C)Cn3c2nc2c3c(=O)[nH]c(=O)n2C)cc1` (stereo unspecified), the Potency was active: 7.38 µM.
For `COc1ccc(CCNC(=O)CCCN2C(=O)C(c3ccccc3)Oc3cccnc32)cc1OC` (stereo unspecified), the Potency was inconclusive [inhibitor, single point].
For `Cc1cc(OC(=O)N2CCCCC2)cc(C)c1Cl`, the Potency was inconclusive [inhibitor, full curve, poor fit].
For `COc1ccc2c(c1)c(=O)c(C(=O)c1ccc(F)cc1)cn2CC(=O)Nc1ccc(F)cc1`, the Potency was inconclusive [inhibitor, single point].
With `Cc1ccccc1CN1CCc2cc([N+](=O)[O-])ccc21` the Potency was inconclusive [inhibitor, single point].
For `CC1=NN(c2ccccc2)C(=O)/C1=C/c1cc2cc(C)ccc2nc1N1CCCCC1`, the Potency was inconclusive [inhibitor, single point].
With `Cc1ccccc1C(=O)N1CCCN(C(=O)c2ccccc2C)CC1` the “activity change, negative = inhibition” value was inactive: 8.33%.
In the case of `COc1cc(NS(=O)(=O)c2ccc(NC(=O)c3cccs3)cc2)nc(OC)n1`, the “activity change, negative = inhibition” value is reported as inactive: 27.2%.
In the case of `Cc1ccc(-n2c(C)cc(C(=O)COc3cccnc3[N+](=O)[O-])c2C)cc1`, the “activity change, negative = inhibition” value is reported as inactive: 11.1%.
With `COc1ccccc1C(=O)NCCC(=O)N1CC=C(c2ccccc2)CC1` the Potency was active: 11.7 µM.
With `COc1ccc(NC(=O)c2cc(-c3cccnc3)nc3c(C)c(C)ccc23)c(OC)c1` the Potency was inconclusive [inhibitor, full curve].
For `CCc1cccc2c(C(=O)COC(=O)c3ccc(O)cc3)c[nH]c12`, the “activity change, negative = inhibition” value was inactive: 38.7%.
For `Cc1cc(C(C2C(=O)CC(C)(C)CC2=O)C2C(=O)CC(C)(C)CC2=O)cc(C)c1OC(F)F`, the “activity change, negative = inhibition” value was inactive: 19.3%.
With `CCNC(=O)CC1C(=O)N(c2ccccc2)C(=O)N1CCc1ccc(OC)cc1` (stereo unspecified) the “activity change, negative = inhibition” value was inactive: 27.5%.
For `CNc1nc2c(c(=O)n(C)c(=O)n2C)n1Cc1ccccc1`, the “activity change, negative = inhibition” value was inactive: 6.84%.
In the case of `O=C(Cc1cccs1)N1CCCC(c2nc3c(nnn3Cc3ccc(F)cc3)c(=O)[nH]2)C1` (stereo unspecified), the Potency is reported as inconclusive [inhibitor, partial curve].
In the case of `CCCCn1c(C)c(C(=O)O)c2cc(OC)c3ccccc3c21`, the Potency is reported as inconclusive [inhibitor, partial curve, poor fit].
In the case of `CC(C)N(C(=O)CSc1nnc(NC(=O)C2CCC2)s1)C(C)C`, the Potency is reported as active: 6.57 µM.
With `CCCCCCc1ccc(N2C[C@H](CCCCC)[C@@H](CC(=O)NCc3ccccc3)C2=O)cc1` the Potency was inconclusive [inhibitor, single point].
In the case of `O=C(Nc1nc(-c2ccccc2)cs1)C1c2ccccc2Oc2ccccc21`, the Potency is reported as active: 11.7 µM.
In the case of `COc1ccccc1CCNC(=O)CSc1ccc(-c2ccco2)nn1`, the Potency is reported as inconclusive [inhibitor, partial curve].
For `CCc1c(C(=O)Nc2cc(C)ccc2OC)[nH]c(C)c1C(C)=O`, the Potency was inconclusive [inhibitor, single point].
In the case of `CCOC(=O)C1(CCc2ccccc2)CCN(Cc2cccc3cnccc23)CC1`, the Potency is reported as inconclusive [inhibitor, partial curve].
With `C#CCSc1nc(=O)c2cccnc2n1-c1ccc(C)cc1` the Potency was inconclusive [inhibitor, partial curve].
With `Cc1cc(Br)ccc1NC(=O)c1ccc(-n2cncn2)c([N+](=O)[O-])c1` the Potency was inconclusive [inhibitor, single point].
For `OCC1(CC2CCCCO2)CCN(Cc2nc3ccccc3[nH]2)CC1` (stereo unspecified), the “activity change, negative = inhibition” value was inactive: -6.84%.
In the case of `CCOC(=O)N1CCN(C2CC(=O)N(c3ccccc3)C2=O)CC1` (stereo unspecified), the “activity change, negative = inhibition” value is reported as inactive: 4.56%.
For `NC(=O)c1ccsc1NC(=O)COC(=O)/C=C/c1ccccc1`, the Potency was inconclusive [inhibitor, partial curve, poor fit].
In the case of `O=C1COc2ccc(C(=O)CSc3nnc(-c4cccs4)n3Cc3ccccc3)cc2N1`, the Potency is reported as inconclusive [inhibitor, single point].
For `COCCN(Cc1nc(C2(c3ccc(C)cc3)CCCC2)no1)C(C)C`, the Potency was inconclusive [inhibitor, single point].
In the case of `CCCNC(=O)c1ccccc1NC(=O)COc1cccc2c1OC(C)(C)C2`, the Potency is reported as inconclusive [inhibitor, single point].
With `CN1CCN(S(=O)(=O)c2cccc(C(=O)N(C)Cc3c(F)cccc3Cl)c2)CC1` the Potency was inconclusive [inhibitor, single point].
With `O=C(CN1CCOCC1)Nc1ccc(Br)cc1C(=O)c1ccccc1` the “activity change, negative = inhibition” value was inactive: -21.4%.
For `CC(C1CC1)N(Cc1ccccc1)C(=O)NC(=O)c1ccccc1` (stereo unspecified), the “activity change, negative = inhibition” value was inactive: -1.76%.
For `Cc1cc(-c2cc(C(=O)NCc3ccccc3)on2)nc(S(C)(=O)=O)n1`, the Potency was inconclusive [inhibitor, single point].
With `CC(=O)C1C(c2ccc(O)cc2)NC(=O)NC1(O)C(F)(F)F` (stereo unspecified) the “activity change, negative = inhibition” value was inactive: -13.8%.
With `CCc1nc2sc3c(c2c(=O)n1N)CC(C)(C)OC3` the “activity change, negative = inhibition” value was inactive: 5.34%.
For `COc1ccc(-c2nc(C#N)c(NCCCn3ccnc3)o2)cc1OC`, the Potency was inconclusive [inhibitor, single point].
For `O=C(CCc1nc(-c2ccc(Cl)cc2)no1)NCc1ccccc1CN1CCOCC1`, the “activity change, negative = inhibition” value was inactive: -16.3%.
With `CCCCc1nc2ccccc2n1CC(=O)NN` the “activity change, negative = inhibition” value was inactive: -13.7%.
In the case of `COc1ccccc1CN1C[C@@H]2C[C@@H](c3cccc(C)n3)N3CCC[C@@]23C1=O`, the Potency is reported as inconclusive [inhibitor, single point].
In the case of `COc1ccc(NC(=O)C2CCN(S(=O)(=O)c3ccccc3)CC2)cc1`, the Potency is reported as inconclusive [inhibitor, partial curve].
In the case of `CC(C)(C)OC(=O)CNC(=O)c1nc[nH]c1C(=O)N1CCN(C(=O)OC(C)(C)C)CC1`, the “activity change, negative = inhibition” value is reported as inactive: 6.18%.
With `CNS(=O)(=O)c1ccc2nc(NC(=O)c3ccc(N4C(=O)CCC4=O)cc3)sc2c1` the Potency was inconclusive [inhibitor, partial curve, poor fit].
